Measurements published in PMC12032302, “A20 attenuates oxidized self-DNA-mediated inflammation in acute kidney injury” (Signal Transduction and Targeted Therapy, 2025).
These are yes or no findings as the source states them, for the method shown. In cells and extracts the contact can be indirect. Some binding calls cover weakened binding; strength is not graded here. Tags and fused reporters may be left off the sequences shown.

Amino acid sequences for entries named in this document (tags omitted). A change or cut given only in a name is not applied to a line headed by its entry.
UniProt Q9ES74: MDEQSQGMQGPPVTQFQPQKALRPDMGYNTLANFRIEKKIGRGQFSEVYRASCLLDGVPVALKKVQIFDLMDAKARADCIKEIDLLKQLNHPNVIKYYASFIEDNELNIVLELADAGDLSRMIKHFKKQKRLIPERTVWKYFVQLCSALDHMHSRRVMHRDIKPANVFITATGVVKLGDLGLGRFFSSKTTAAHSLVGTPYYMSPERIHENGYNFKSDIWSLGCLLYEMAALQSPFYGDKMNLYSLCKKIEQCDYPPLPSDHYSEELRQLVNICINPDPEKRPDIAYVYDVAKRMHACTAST

Assays:
Test in all cases: co-IP; HEK293T transiently transfected; mild lysis buffer; anti-HA overnight at 4 °C, magnetic beads; immunoblot
[1] = target: HA-NEK7 K140A (mouse) (mouse) (UniProt Q9ES74)
[2] = target: HA-NEK7 (mouse NIMA-related kinase 7, wild type) (mouse) (UniProt Q9ES74)
[3] = target: HA-NEK7 K130A (mouse) (mouse) (UniProt Q9ES74)
[4] = target: HA-Tri-MUT-NEK7 (mouse NEK7 K130A, L132R, K140A) (mouse) (UniProt Q9ES74)
[5] = target: NEK7 K293R (mouse) (mouse) (UniProt Q9ES74)
[6] = target: HA-NEK7 L132R (mouse) (mouse) (UniProt Q9ES74)

- binding [1]: binds
- binding [2]: binds
- binding [3]: binds
- binding [4]: no binding
- binding [5]: binds
- binding [6]: binds
B1: FLAG-A20 (mouse A20, encoded by Tnfaip3) (enzyme, UniProt Q60769 1-775)
chain: MAEQLLPQALYLSNMRKAVKIRERTPEDIFKPTNGIIYHFKTMHRYTLEMFRTCQFCPQFREIIHKALIDRSVQASLESQKKLNWCREVRKLVALKTNGDGNCLMHAACQYMWGVQDTDLVLRKALCSTLKETDTRNFKFRWQLESLKSQEFVETGLCYDTRNWNDEWDNLVKMASADTPAARSGLQYNSLEEIHIFVLSNILRRPIIVISDKMLRSLESGSNFAPLKVGGIYLPLHWPAQECYRYPIVLGYDSQHFVPLVTLKDSGPELRAVPLVNRDRGRFEDLKVHFLTDPENEMKEKLLKEYLIVMEIPVQGWDHGTTHLINAAKLDEANLPKEINLVDDYFELVQHEYKKWQENSDQARRAAHAQNPLEPSTPQLSLMDIKCETPNCPFFMSVNTQPLCHECSERRQKNQSKLPKLNSKLGPEGLPGVGLGSSNWSPEETAGGPHSAPPTAPSLFLFSETTAMKCRSPGCPFTLNVQHNGFCERCHARQINASHTADPGKCQACLQDVTRTFNGICSTCFKRTTAEPSSSLTSSIPASCHQRSKSDPSQLIQSLTPHSCHRTGNVSPSGCLSQAARTPGDRAGTSKCRKAGCMYFGTPENKGFCTLCFIEYRENKQSVTASEKAGSPAPRFQNNVPCLGRECGTLGSTMFEGYCQKCFIEAQNQRFHEARRTEEQLRSSQHRDMPRTTQVASRLKCARASCKNILACRSEELCMECQHLSQRVGSVAHRGEPTPEEPPKQRCRAPACDHFGNAKCNGYCNECYQFKQMYG
